# Experimental data taken from the supplement of paper PMC8728848.
# Some of the results follow.
# Key:
# Assay in all cases: glycan array binding signal (z-score within array); higher = stronger binding
# Conditions in all cases: glycan notation: IUPAC condensed, linker removed
# Gal6S(b1-4)Glc6S = target: Gal6S(b1-4)Glc6S
# In short: (§1)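 The binding signal is a Z-score computed within each array and averaged over linkers. Arrays of the same protein sequence at different concentrations or buffers were also averaged together. Data originate from 3228 arrays in the Consortium for Functional Glycomics database, kept only where the protein sequence was available.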
# Gal6S(b1-4)GlcNAc = target: Gal6S(b1-4)GlcNAc
# In short: as §1
# Gal6S(b1-4)GlcNAc6S = target: Gal6S(b1-4)GlcNAc6S
# In short: as §1
# GalNAc(a1-3)Gal = target: GalNAc(a1-3)Gal
# In short: as §1
# GalNAc(a1-3)GalNAc = target: GalNAc(a1-3)GalNAc
# In short: as §1
# [1] = target: GalNAc(a1-3)GalNAc(b1-3)Gal(a1-4)Gal(b1-4)Glc
# In short: as §1
# [2] = target: GalNAc(a1-3)GalNAc(b1-3)Gal(a1-4)Gal(b1-4)GlcNAc
# In short: as §1
# GalNAc(b1-3)Gal = target: GalNAc(b1-3)Gal
# In short: as §1
# [3] = target: GalNAc(b1-3)Gal(a1-4)Gal(b1-4)GlcNAc
# In short: as §1
# [4] = target: GalNAc(b1-3)Gal(a1-4)Gal(b1-4)GlcNAc(b1-3)Gal(b1-4)Glc
# In short: as §1
# [5] = target: GalNAc(b1-3)Gal(a1-6)Gal(b1-4)Glc
# In short: as §1
# GalNAc(b1-3)GalNAc = target: GalNAc(b1-3)GalNAc
# In short: as §1
# GalNAc(b1-3)GlcNAc = target: GalNAc(b1-3)GlcNAc
# In short: as §1
# GalNAc(b1-4)Gal(b1-4)Glc = target: GalNAc(b1-4)Gal(b1-4)Glc
# In short: as §1
# GalNAc(b1-4)GlcNAc = target: GalNAc(b1-4)GlcNAc
# In short: as §1
# [6] = target: GalNAc(b1-4)GlcNAc(b1-2)Man
# In short: as §1
# [7] = target: GalNAc(b1-4)GlcNAc(b1-2)Man(a1-3)[GalNAc(b1-4)GlcNAc(b1-2)Man(a1-6)]Man(b1-4)GlcNAc(b1-4)GlcNAc
# In short: as §1
# [8] = target: GalNAc(b1-4)GlcNAc(b1-3)GalNAc(b1-4)GlcNAc
# In short: as §1
# GalNAc(b1-4)GlcNAc6S = target: GalNAc(b1-4)GlcNAc6S
# In short: as §1
# GalNAc(b1-6)GalNAc = target: GalNAc(b1-6)GalNAc
# In short: as §1
# GalNAc3S(b1-4)GlcNAc = target: GalNAc3S(b1-4)GlcNAc
# In short: as §1
# GalNAc3S(b1-4)GlcNAc3S = target: GalNAc3S(b1-4)GlcNAc3S
# In short: as §1
# [9] = target: GalNAc3S(b1-4)[Fuc(a1-3)]GlcNAc
# In short: as §1
# GalNAc4S6S(b1-4)GlcNAc = target: GalNAc4S6S(b1-4)GlcNAc
# In short: as §1
# GalNAc6S(b1-4)GlcNAc = target: GalNAc6S(b1-4)GlcNAc
# In short: as §1
# Glc(a1-4)Glc = target: Glc(a1-4)Glc
# In short: as §1
# [10] = target: Glc(a1-4)Glc(a1-4)Glc(a1-4)Glc
# In short: as §1
# Glc(a1-6)Glc(a1-6)Glc = target: Glc(a1-6)Glc(a1-6)Glc
# In short: as §1
# [11] = target: Glc(a1-6)Glc(a1-6)Glc(a1-6)Glc
# In short: as §1
# Glc(b1-4)Glc = target: Glc(b1-4)Glc
# In short: as §1
# Glc(b1-6)Glc = target: Glc(b1-6)Glc
# In short: as §1
# GlcA(b1-3)Gal = target: GlcA(b1-3)Gal
# In short: as §1
# GlcA(b1-3)GlcNAc = target: GlcA(b1-3)GlcNAc
# In short: as §1
# GlcA(b1-6)Gal = target: GlcA(b1-6)Gal
# In short: as §1
# [12] = target: GlcA3S(b1-3)Gal(b1-4)GlcNAc(b1-2)Man
# In short: as §1
# [13] = target: GlcA3S(b1-3)Gal(b1-4)GlcNAc(b1-3)Gal(b1-4)Glc
# In short: as §1
# [14] = target: GlcNAc(a1-3)Gal(b1-4)GlcNAc
# In short: as §1
binder,measurement,setting,value
SP16663B-bot-321-25-321 (Bacteroides ovatus) (protein) DDDDEVTMNSKFYLSTKVFPVDSYEASLSVILKDNSVVVNELQPNYRFVACATERLSKDVKITADSDDNLVSAYNKANDTEYNILPAENYSFTNKTVTIENGESVSGDSIKIELLNVGSLTTEGGYLLPVTISSIEGNNLDALSSNRGVVYLKIQNIHVNVESGQPAEGTLIADRSGWTVKVAPTTRGDAKNLIDGTNSDVARDGGAEYWLTVDIGKVQTLTGIRNKCYASSYSPTAVEVFTSSDGAKWKSIGAVTISKSGTQYIKFSKAVETRYLKYYVKQGPNTVSLTEFDLYAK,glycan array binding signal (z-score),Gal6S(b1-4)Glc6S,-0.107
same,glycan array binding signal (z-score),Gal6S(b1-4)GlcNAc,0.309
same,glycan array binding signal (z-score),Gal6S(b1-4)GlcNAc6S,-0.207
same,glycan array binding signal (z-score),GalNAc(a1-3)Gal,-0.597
same,glycan array binding signal (z-score),GalNAc(a1-3)GalNAc,-0.141
same,glycan array binding signal (z-score),[1],-0.638
same,glycan array binding signal (z-score),[2],-0.298
same,glycan array binding signal (z-score),GalNAc(b1-3)Gal,0.133
same,glycan array binding signal (z-score),[3],0.788
same,glycan array binding signal (z-score),[4],0.043
same,glycan array binding signal (z-score),[5],-0.361
same,glycan array binding signal (z-score),GalNAc(b1-3)GalNAc,-0.359
same,glycan array binding signal (z-score),GalNAc(b1-3)GlcNAc,-0.426
same,glycan array binding signal (z-score),GalNAc(b1-4)Gal(b1-4)Glc,0.089
same,glycan array binding signal (z-score),GalNAc(b1-4)GlcNAc,1.29
same,glycan array binding signal (z-score),[6],1.72
same,glycan array binding signal (z-score),[7],-0.015
same,glycan array binding signal (z-score),[8],-0.427
same,glycan array binding signal (z-score),GalNAc(b1-4)GlcNAc6S,-0.779
same,glycan array binding signal (z-score),GalNAc(b1-6)GalNAc,-0.325
same,glycan array binding signal (z-score),GalNAc3S(b1-4)GlcNAc,-0.25
same,glycan array binding signal (z-score),GalNAc3S(b1-4)GlcNAc3S,-0.087
same,glycan array binding signal (z-score),[9],0.251
same,glycan array binding signal (z-score),GalNAc4S6S(b1-4)GlcNAc,-0.392
same,glycan array binding signal (z-score),GalNAc6S(b1-4)GlcNAc,-0.428
same,glycan array binding signal (z-score),Glc(a1-4)Glc,0.248
same,glycan array binding signal (z-score),[10],-0.738
same,glycan array binding signal (z-score),Glc(a1-6)Glc(a1-6)Glc,0.136
same,glycan array binding signal (z-score),[11],-0.767
same,glycan array binding signal (z-score),Glc(b1-4)Glc,0.122
same,glycan array binding signal (z-score),Glc(b1-6)Glc,0.07
same,glycan array binding signal (z-score),GlcA(b1-3)Gal,0.235
same,glycan array binding signal (z-score),GlcA(b1-3)GlcNAc,0.051
same,glycan array binding signal (z-score),GlcA(b1-6)Gal,0.013
same,glycan array binding signal (z-score),[12],0.119
same,glycan array binding signal (z-score),[13],-0.498
same,glycan array binding signal (z-score),[14],-0.117
